Results on 42 compounds are retold here after ChEMBL document CHEMBL4888484, “Replenishing the malaria drug discovery pipeline: Screening and hit evaluation of the MMV Hit Generation Library 1 (HGL1) against asexual blood stage Plasmodium falciparum ,using a nano luciferase reporter read-out” (2022).

Each structure is given as a SMILES string. In all, about 150,000 compounds went through this assay and about 540 (0.36%) showed an effect of 50% or more. The list shows a part of the results.

This assay has as its system Plasmodium falciparum. The assay is described as follows: Primary screen in NF54 nanoGlo assay, in single point, at 2uM, 72h; a lower Z score goes with more inhibition. It counts as functional, Erythrocyte. To be noted: timepoint 72 hour.
Broadly, the % Inhibition is the change of the read-out against control, counted positive when it falls. With `C[C@]1(c2ccc(Cl)cc2)CC(=O)N(CC(=O)N2CCCCCC2)C1=O`, the “% Inhibition” value is on record as 3% and the Z score was -0.38.

Take `Cc1cc(-n2nc(C)nc2C2(Cn3ccnc3)CC2)ccn1`: the “% Inhibition” value is reported as -8% and the Z score stood at 0.99.

As for `Cc1ncccc1CNC(=O)Nc1ccc(C2CCC2)cc1`, the “% Inhibition” value came out at 3% and the Z score is reported as -0.54.

With `Cc1ncsc1C(=O)[C@H](C#N)c1nc2cc(F)ccc2s1`, the “% Inhibition” value was -1% and the Z score is on record as 0.18.

Turning to `Cc1nonc1CC(=O)N[C@@H](C)c1cc(Cl)cc(Cl)c1F`, the “% Inhibition” value is listed as 1% and the Z score is reported as -0.13.

As to `CCCCN1CCc2ccc(NC(=O)N(C)Cc3cc(C)on3)cc21`, the “% Inhibition” value was -5% and the Z score stood at 0.74.

With `CCCOC1(CNC(=O)c2ccc3nnn(C)c3c2)CCCCC1`, the “% Inhibition” value is given as -2% and the Z score is on record as 0.17.

With `CN(C)c1cccc(C(=O)Nc2cc(-c3ccsc3)no2)c1`, the “% Inhibition” value is -9% and the Z score is 1.58.

For `CC(C)CCNC(=O)C[C@H](c1cccc(OCc2ccccc2)c1)c1c[nH]c2ccccc12`, the “% Inhibition” value is listed as -15% and the Z score is 1.66.

Consider `O=C(CC1CCNCC1F)Nc1nccn1Cc1ccc(Br)cc1` (centres undefined), for which the “% Inhibition” value stood at 3% and the Z score is on record as -0.44.

On to `O=C(Nc1cccc(-c2nc3ccccc3s2)c1)c1cc[n+]([O-])cc1`, for which the “% Inhibition” value was -15% and the Z score was 1.36.

With `CN(C)S(=O)(=O)c1ccc(C(=O)NC[C@@]2(O)C=CCCC2)cc1`, the “% Inhibition” value was -9% and the Z score came out at 1.6.

With `Nc1nc2c(c(-c3cccnc3)n1)CN(C(=O)c1cccc(Cl)c1)C2`, the “% Inhibition” value is -11% and the Z score worked out at 1.03.

Turning to `FC(F)(F)c1ccccc1-c1c[nH]c([C@@H]2CCCN2)n1`, the “% Inhibition” value was -1% and the Z score is 0.16.

On to `COc1ccccc1N1CCN(Cc2nc(C(=O)NCc3cccnc3)co2)CC1`, for which the “% Inhibition” value is 6% and the Z score is -0.52.

As for `CCn1c(-c2cccnc2)nc2cc(NC(=O)COC)cc(C(=O)NCCC3=CCCCC3)c21`, the “% Inhibition” value is -12% and the Z score stood at 1.5.

As for `COc1ccc(Cl)cc1C(=O)N1CC(c2nc(-c3cccc(C(F)(F)F)c3)no2)C1`, the “% Inhibition” value is -7% and the Z score amounted to 1.32.

In the case of `CC[C@H]1CN(S(=O)(=O)CCc2ccc3c(c2)CCO3)CCN1CC(F)F`, the “% Inhibition” value came out at 1% and the Z score is given as -0.12.

`CN(C)CC(C)(C)CNC(=O)Nc1ccc(Cl)c2ncccc12`: the “% Inhibition” value is recorded as -18% and the Z score is recorded as 1.63.

With `CCC(CC)C(=O)N1CCC(c2nnc(C(=O)Nc3cccc(Cl)c3)s2)CC1`, the “% Inhibition” value worked out at 7% and the Z score was -0.65.

For the compound `Oc1cc(CNCc2noc(-c3ccco3)n2)nc2c(F)cccc12`, the “% Inhibition” value is -7% and the Z score was 1.3.

Take `O=C(NC1CCOC(c2ccccc2)C1)NC1COc2ccccc21` (centres undefined): the “% Inhibition” value is -14% and the Z score is on record as 2.55.

Take `Cn1cc(C(=O)N2CCC(C)(C#N)CC2)ccc1=O`: the “% Inhibition” value was -25% and the Z score worked out at 2.9.

Regarding `O=C(C1CN(c2ncc(C(F)(F)F)cc2Cl)C1)N1CCCC1`, the “% Inhibition” value amounted to 38% and the Z score is listed as -4.9.

On to `Cc1cc(NC(=O)CNc2ccc(-c3ccccc3)cc2)on1`, for which the “% Inhibition” value is recorded as -6% and the Z score turned out to be 0.81.

As to `N/C(=N\O)c1nnn2c1CO[C@H](c1ccccc1Cl)C2`, the “% Inhibition” value is reported as 11% and the Z score is on record as -1.25.

For the compound `COC(=O)N(C)CC(=O)Nc1ccc2c(c1)OC1(CCCCC1)O2`, the “% Inhibition” value is 3% and the Z score is recorded as -0.62.

Turning to `c1ccc(COc2cccc(-c3nc4c([nH]3)CCNC4)c2)cc1`, the “% Inhibition” value is 4% and the Z score is listed as -0.7.

On to `COc1ccc(-c2noc(-c3cc4n(n3)C[C@@H](c3ccc(F)cc3)OC4)n2)cc1OC`, for which the “% Inhibition” value came to 28% and the Z score is recorded as -3.23.

With `COc1ccc(OCC(=O)Nc2noc(-c3ccccc3)n2)cc1`, the “% Inhibition” value stood at 9% and the Z score is recorded as -1.03.

`COc1ccncc1NC(=O)c1ccc2ccccc2n1`: the “% Inhibition” value is reported as -17% and the Z score is listed as 2.18.

Regarding `O=C(Cc1csc(-c2ccccc2)n1)N1CCC(O)(c2ccccn2)CC1`, the “% Inhibition” value is given as -7% and the Z score is given as 1.07.

For `COc1cccc([C@H](CNS(C)(=O)=O)OC)c1`, the “% Inhibition” value is listed as -10% and the Z score was found to be 1.98.

As for `Cc1cc(NC(=O)N2CC[C@@H]3OCC(=O)N[C@H]3C2)nn1C1CCCCC1`, the “% Inhibition” value is recorded as -6% and the Z score turned out to be 1.17.

For the compound `COc1ccc(CCN2CN(S(=O)(=O)c3ccc(C)c(C)c3)c3nc4ccccc4nc32)cc1`, the “% Inhibition” value is 3% and the Z score is given as -0.48.

`O=C(CCc1ccc(F)cc1F)NCC[C@H]1CCOC1`: the “% Inhibition” value was -7% and the Z score is listed as 1.16.

Take `CC(=O)Nc1c[nH]nc1[C@H]1CCCN(c2nc(C(F)(F)F)cs2)C1`: the “% Inhibition” value is given as -6% and the Z score was found to be 0.66.

Turning to `Cc1ccc(C(=O)c2nocc2C(=O)c2ccccc2)cc1`, the “% Inhibition” value was -39% and the Z score is on record as 4.56.

`CCOC(=O)c1cn(Cc2ccc(Cl)cc2)c2nc(C)ccc2c1=O`: the “% Inhibition” value is listed as -29% and the Z score was determined as 3.13.

For the compound `CCOC1CC(CC(=O)Nc2cc(Cl)ccc2-c2nnn[nH]2)C1` (centres undefined), the “% Inhibition” value is -4% and the Z score stood at 0.74.

For `c1ccc(-n2nnnc2NC2CCCCCCC2)cc1`, the “% Inhibition” value was 4% and the Z score is -0.68.

As to `Cc1ccc2c(=O)c(C(=O)c3ccc(F)cc3)cn(Cc3ccccc3C)c2n1`, the “% Inhibition” value is on record as -5% and the Z score stood at 0.65.
